Here are results for 22 molecules from PMC12136788.

First the molecules themselves.
B1: chr20:54972846:54972847:+_ENSG00000101138_ENST00000217109|hu_mus|FALSE|FALSE (ssRNA)
RNA: GGGAGUUCUACAGUCCGACGAUCGGCUUCCUGAAUGUAUUUGAAAGCUCUUUUUGCAGACGGUUUGGAAUAAUCGAACAAUUUCAGAGUAUAAUCCCUUGAGCCCGAGGCCAGGAUCUGUUCUGUUGGGUGAAAAGCAAGACACAACAGAGGAUUGAGCAUCA
B2: chr1:90180492:90180493:+_ENSG00000171488_ENST00000370454|hu_hu|FALSE|FALSE (ssRNA)
RNA: GGGAGUUCUACAGUCCGACGAUCUUUCAUUUGCUCCCGGACGUCAGAAGGCAGAGUUUCAAACAGAGCAUCUUCUACAACUAAACCAGCUCGCUUCAGAGCCCGACAGUCACCCAGUUCAGGAGGGAGGAUUUCAAAGUGAUUCAACAGAGGAUUGAGCAUCA
B3: chr1:39494447:39494448:+_ENSG00000168653_ENST00000372967|hu_mus|hu_hu_hu_mus_False|8_98 (ssRNA)
RNA: GGGAGUUCUACAGUCCGACGAUCGCACCGAGCGGCGAUCUUGUAGGGCUGUUCUGCGCUUAGGAACAUAAAGUGCCGGUCCAGGCUGAUGCCCAGCUUUUUCUGUAUGUCAAGGAAAGGCAUGGCUGAUGCUCGUGCUUGUCACAACAGAGGAUUGAGCAUCA
B4: chr4:83276511:83276512:-_ENSG00000138668_ENST00000353341|hu_mus|FALSE|FALSE (ssRNA)
RNA: GGGAGUUCUACAGUCCGACGAUCCUUCACCACCUGUUGGGGAUAAGUUGCAAAUGGAAUAAUUUAGUAUGGUUUGUAGCUAUUUUGAUGUCCACCUCGCCUGGAUACUUUCCCAUAACCACUCUGCUGAUUGCUAUAAUCACCCAACAGAGGAUUGAGCAUCA
B5: 59843556_59845208_1259_CDS_ENSMUSG00000035469_ENSMUST00000043227|mouse|control|control (ssRNA)
RNA: GGGAGUUCUACAGUCCGACGAUCGUGCCCGCCUUGUGUCUUGGCAGCAGAUGUGUGGGUGGAGUGGCAAGCUGCAAUCUCUAUAACCCUUUCUUUUUCCACCAUGAUUUGUGUUGGGCUCAGCAGGUUAUUUUUACUUCCAGUCAACAGAGGAUUGAGCAUCA
B6: chr3:119450855:119450856:-_ENSMUSG00000028134_ENSMUST00000029780|mus_hu|mus_mus_mus_hu_False|48_78 (ssRNA)
RNA: GGGAGUUCUACAGUCCGACGAUCUGUGGUGCCACUAAGAGGAGUAUUUGCUGUCUGGACCGCUGUCACAGCUUGAAGAACUGCCUGCGCACGUUGGUUUAAUGUAUUAUCUGUCUUUAGUUCUUUGUGAUUCGAGUACUGGAUCAACAGAGGAUUGAGCAUCA
B7: 157883469_157883589_81_5pUTR_ENSMUSG00000026466_ENSMUST00000097527|mouse|control|control (ssRNA)
RNA: GGGAGUUCUACAGUCCGACGAUCGGGAGGCAGUUGAGAGUCGCCGGGGCCGCCGCCUGCGUCCUCGCUCGUGUGCCACCAACCAGCCUCCAGGCCCAUGGUGUGUCCUGAGGGCUGUCGGAGAGGCAGUGCCCGAGCUGGGUCCAACAGAGGAUUGAGCAUCA
B8: chr2:117093540:117093541:+_ENSMUSG00000027349_ENSMUST00000028825|mus_mus|FALSE|FALSE (ssRNA)
RNA: GGGAGUUCUACAGUCCGACGAUCCAAUGUGACUGUUGUCUUGGGCGACAGAGCAUAACGCUUGGGCUGGUAAAUUCUUGCUAUGUUAUCUGUUUUUGCCUUUGCUCUAUCGGACCAUCCAAAGGACUGCACUGUCACAUCCAACAACAGAGGAUUGAGCAUCA
B9: chr3:176767854:176767855:-_ENSG00000177565_ENST00000430069|hu_hu|hu_hu_hu_mus_False|68_88 (ssRNA)
RNA: GGGAGUUCUACAGUCCGACGAUCGACAUCCUUGUUACUGGGCACGUCUUGCCCUCCUUCCCGUAUGCAAUGUCUAAGCACGAGCUGCGUAGGGCCACUCGUGCUGUUCUCACUGAGGUUCCAGAUUCUUGCCGUGGAGUCUCCCAACAGAGGAUUGAGCAUCA
B10: 17772861_17772981_1224_3pUTR_ENSMUSG00000057614_ENSMUST00000074694|mouse|control|control (ssRNA)
RNA: GGGAGUUCUACAGUCCGACGAUCUUAUUCUUUAUGAUGACGUCUGUUACAGCAUCGAACACGAACUGCACGUUCUUCGUAUCUGUGGCGCACGUGAAGUGGGUGUAAAUUUCCUUUGUGUCCUUCCUUUUAUUGAGGUCUUCACAACAGAGGAUUGAGCAUCA
B11: chr7:56130949:56130950:+_ENSG00000146731_ENST00000540286|hu_hu|FALSE|FALSE (ssRNA)
RNA: GGGAGUUCUACAGUCCGACGAUCUCACUGGAUAAAAGACCUGCUUUAUGUGUAUACACUUCAGUGCAAUUUUUAAAAAUACUAUAAUUUCAGAACUUCCAAAUUUCAACAGAUGCCAGUGUUCUCUCCUUUUUUCAUAUGGGACAACAGAGGAUUGAGCAUCA
B12: chr3:41417089:41417090:+_ENSMUSG00000025764_ENSMUST00000026865|mus_mus|FALSE|FALSE (ssRNA)
RNA: GGGAGUUCUACAGUCCGACGAUCAACCAAGGAAGUGCCCAUUUGUUUCCUGAAGAAUGCAGAAUGCCAUUUCAAGUCCUCUAUCUUGGGAGCAUUGGGGCCCACAGAAGGACUGUUGAAAAAAAGCAUGUUCUCCAGUGCGGACAACAGAGGAUUGAGCAUCA
B13: chr11:77336104:77336105:-_ENSG00000074201_ENST00000525064|hu_mus|hu_hu_hu_mus_False|1_108 (ssRNA)
RNA: GGGAGUUCUACAGUCCGACGAUCCUCGCACAUUGCAGUGAACAUCGCCUCCAAUGCUGACUUAUCACUGGGCACAAAUCGAAAUUCAGAAAUGGGUUCAACAUCAUCAUUGUCUUCCUCAUCUUCAUCAGAGAGAGCAGGUUCCAACAGAGGAUUGAGCAUCA
B14: 83822515_83822635_1918_3pUTR_ENSMUSG00000034940_ENSMUST00000092834|mouse|control|control (ssRNA)
RNA: GGGAGUUCUACAGUCCGACGAUCUGCUGCUGGACAAGGGGCUGGGACUCACUUCCUCCCUGAGGGCUUCAUACUUGUCACUUGCUUUUGGCUCAGAUGAAAUGGAGCUGUUACCGAAAGCCAUAAAAUCUGCAAAGUCGUCCUCAACAGAGGAUUGAGCAUCA
B15: 21758683_21758803_1091_3pUTR_ENSMUSG00000047368_ENSMUST00000052556|mouse|control|control (ssRNA)
RNA: GGGAGUUCUACAGUCCGACGAUCAAAUUUACCAGUUCCUGUGACACGAACUGUUUUAACCUCUCAAGGUAUUGUCCAUAAAGCUCCACGUCAUUGUGUCCUGCCCCUUCAACCCACAGGGGCUCCACAGGUCUUUGGCAGCGCCAACAGAGGAUUGAGCAUCA
B16: chr6:168291551:168291552:+_ENSG00000130396_ENST00000400822|hu_hu|FALSE|FALSE (ssRNA)
RNA: GGGAGUUCUACAGUCCGACGAUCGUGUUUCUUGGUUUUCUUUGGGAUGUGGUCUGGUGGCCUCCUCUUCAACUGAAAGACUAAAAUCCCUUUGUCACUUGGCCAUUCCCUGAAGAUUUGUAAAGGACACUCAUCAUCAUCAAGCAACAGAGGAUUGAGCAUCA
B17: chr2:47387770:47387771:-_ENSG00000143933_ENST00000272298|hu_hu|motif|central (ssRNA)
RNA: GGGAGUUCUACAGUCCGACGAUCAAGGUUUUAGGACAAUGACAGUAAGAUAAGGGAAGAAAACAUGGAGGAAUGAAGUCCGGAUUACUAUACAUGCAUAUUUUUUUGACAGUAGGGAGAAACCUUUUACAGAUAAGUUACAAACAACAGAGGAUUGAGCAUCA
B18: chr21:30248746:30248747:-_ENSG00000156239_ENST00000303775|hu_mus|motif|central (ssRNA)
RNA: GGGAGUUCUACAGUCCGACGAUCGAGCGAUUGUUCAGCUGCCGGCAGCUCUUGUUUACUUCUGUGGCUUUCAGGACACGGGGACUUGCUGAACCUGAGGACUGACAGGGCUUCUUGGCCUGCUUGCCUGCAAAGUGCUGUGGUCAACAGAGGAUUGAGCAUCA
B19: chr2:198351390:198351391:-_ENSG00000144381_ENST00000345042|hu_hu|hu_hu_hu_mus_False|8_108 (ssRNA)
RNA: GGGAGUUCUACAGUCCGACGAUCUCAUUCUCACUCUCCACAGAAAGGCUGCUUCUGAACUCUCAUGUGGUGACACAGCGCUACAGUCCUGAUGCUCACAGAACAGUAGAGAUGCCUCAGUGAUUUAUUAAGUUGAAAGGACACCAACAGAGGAUUGAGCAUCA
B20: chr11:77336104:77336105:-_ENSG00000074201_ENST00000525064|hu_mus|hu_hu_hu_mus_False|8_8 (ssRNA)
RNA: GGGAGUUCUACAGUCCGACGAUCCUCACACAUUGCUGUGAACAUCGCCUCCAAUGCUGACUUAUCACUGGGCACAAAUCGAAAUUCAGAAAUGGGUUCAACAUCAUCAUUGUCUUCCUCAUCUUCAUCAUCAGCAAGUUCUUUCAACAGAGGAUUGAGCAUCA
B21: 9157977_9165565_1793_CDS_ENSMUSG00000033499_ENSMUST00000091829|mouse|control|control (ssRNA)
RNA: GGGAGUUCUACAGUCCGACGAUCGCUUGUAAACUUCUCUUCUCUUUUCUUCCGAUAGCCAAAGGAAUUUUUCCUUCCUCUCCCUAAACCAGGAGAGGAUUCAAGACUACUUGGCUCCACACGCCCAGUUCCAAUCUCUCUCUUCAACAGAGGAUUGAGCAUCA
B22: chrX:119680447:119680448:-_ENSG00000158290_ENST00000371322|hu_mus|FALSE|FALSE (ssRNA)
RNA: GGGAGUUCUACAGUCCGACGAUCAAACAAAAAAAUGCUCCUGAUCAUUAUCAUUUGCCUACAGUGGUUUUGCCAGCAUCUAUCGAUCUUUUUGAGAAAAAGAACACUAUCCAAUGAAUCUUCUCUGAACUGAUGAAUCUGUGCCAACAGAGGAUUGAGCAUCA

Some of the results follow.

The target of the assay is T1, UNK ZnF1-3 (human, UniProt Q9C0B0 31-174).
T1 sequence: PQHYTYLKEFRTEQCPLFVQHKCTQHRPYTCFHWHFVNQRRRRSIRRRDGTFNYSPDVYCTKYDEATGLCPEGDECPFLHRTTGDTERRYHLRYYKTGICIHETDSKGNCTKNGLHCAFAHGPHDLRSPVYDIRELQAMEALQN
The assay can be described thus: nsRBNS (natural sequence RNA bind-n-seq); RBNS binding buffer (assumed for nsRBNS): 25 mM Tris pH 7.5, 150 mM KCl, 3 mM MgCl2, 0.01% Triton X-100, 500 ug/ml BSA, 20 U/ml SUPERase-In, 4 C; UNK is unkempt and MSI1 is Musashi-1; names of the RNAs are library labels; protein concentration not given here; high values mean tight binding.
The molecule B1 displayed a binding signal of 0.546 enrichment R. Take B2: the binding signal was determined as 3.22 enrichment R. The molecule B3 gave a binding signal of 0.874 enrichment R. For B4, the binding signal worked out at 0.939 enrichment R. As to B5, the binding signal stood at 0.635 enrichment R.

Consider B6, for which the binding signal came out at 0.744 enrichment R. B7 had a binding signal of 0.476 enrichment R. Molecule B8 registered a binding signal of 0.375 enrichment R.

Molecule B9 gave a binding signal of 0.471 enrichment R. B10: the binding signal came out at 0.421 enrichment R. Molecule B11 yielded a binding signal of 2.03 enrichment R. B12 yielded a binding signal of 1.18 enrichment R. In turn, B13 gave a binding signal of 1.17 enrichment R. In turn, B14 registered a binding signal of 1.22 enrichment R. For the molecule B15, the binding signal came out at 0.988 enrichment R. B16 yielded a binding signal of 0.692 enrichment R. In the case of B17, the binding signal was found to be 1.45 enrichment R. Turning to B18, the binding signal amounted to 1.14 enrichment R.

Molecule B19 had a binding signal of 1.52 enrichment R. As to B20, the binding signal came out at 1.01 enrichment R. As for B21, the binding signal was 0.663 enrichment R. B22: the binding signal was found to be 1.15 enrichment R.
